According to a compilation of properties of binary mixtures (doi:10.1016/j.molliq.2021.115373):
The densities may have been worked out from excess volumes.

Assay: xn = mol fraction of the nth substance listed
Conditions: 101 kPa

O=C1CCCO1 + CC[N+](C)(CC)CCOC.O=S(=O)([N-]S(=O)(=O)C(F)(F)F)C(F)(F)F
x2 = 0
Conditions | mass density [kg/m3]
288.15 K | 1133.4
293.15 K | 1128.7
298.15 K | 1123.9
303.15 K | 1118.9
308.15 K | 1114
313.15 K | 1109.2
318.15 K | 1104.5
323.15 K | 1099.2
333.15 K | 1090
338.15 K | 1085.2
343.15 K | 1080.6
348.15 K | 1075.8
353.15 K | 1071

CC[N+](C)(CC)CCOC.O=S(=O)([N-]S(=O)(=O)C(F)(F)F)C(F)(F)F + O=C1CCCO1
mass density [kg/m3]
Conditions | x1 = 0.2006 | x1 = 0.3003 | x1 = 0.4007 | x1 = 0.4998 | x1 = 0.6002 | x1 = 0.6999 | x1 = 0.8001 | x1 = 0.9003 | x1 = 1
288.15 K | – | 1276.1 | 1313.6 | – | – | 1377.6 | 1390.4 | 1400.8 | 1409.5
293.15 K | 1217.2 | – | 1309.6 | – | 1357.2 | 1373.2 | 1385.9 | 1396.3 | –
298.15 K | 1213.5 | 1268.2 | – | 1332.5 | 1352.9 | 1368.8 | 1381.4 | 1391.7 | 1400.3
303.15 K | 1209.8 | 1264.3 | 1301.5 | 1328.3 | 1348.7 | – | 1377 | 1387.2 | –
308.15 K | 1206 | – | – | – | 1344.4 | 1360.1 | 1372.6 | – | 1391.2
313.15 K | – | 1256.4 | 1293.3 | 1320 | 1340.1 | 1355.7 | – | 1378.3 | 1386.6
318.15 K | 1198.5 | 1252.5 | 1289.2 | 1315.8 | – | 1351.3 | 1363.7 | 1373.8 | 1382.1
323.15 K | – | 1248.6 | – | – | – | 1347.1 | 1359.4 | 1369.4 | 1377.6
328.15 K | 1191.2 | 1244.8 | 1281.3 | 1307.6 | – | 1342.8 | 1355 | 1365 | –
333.15 K | 1187.3 | 1240.8 | – | 1303.5 | 1323.2 | 1338.5 | 1350.7 | 1360.5 | –
338.15 K | 1183.7 | 1237 | 1273.2 | 1299.3 | 1319 | 1334.2 | 1346.3 | 1356.1 | 1364.2
343.15 K | 1179.9 | – | 1269.2 | – | 1314.9 | 1330 | 1342 | 1351.8 | 1359.8
348.15 K | 1176.3 | 1229.3 | – | 1291.2 | 1310.8 | – | 1337.7 | – | 1355.4
353.15 K | – | – | 1261.2 | 1287.2 | – | 1321.6 | 1333.5 | – | 1351
